From PubChem BioAssay AID1347120 (National Center for Advancing Translational Sciences (NCATS), 2019)
Among all 390,000 compounds or so, about 930 (0.24%) were called active. The shares of active, inactive and inconclusive entries below differ from those in the screen. Calls come from the whole dose curve; as a rule, active = well fitted activation curve with a large enough effect; inconclusive = small, poorly fitted or top-dose-only effect; inactive = no such curve, though single readings can be large or run the other way. Potencies beside an inconclusive call are fits to weak or partial responses and may not hold up.

assay: qHTS for Suppressors of FUS Proteinopathy: Primary screen using FUS-linked yeast assay; note: nearly all actives have a fitted effect of over 55% in size;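 for growth rescue (activation): plate controls were DMSO vehicle for no effect and reference control for full effect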; settings: S. cerevisiae FUS-expressing, OD600, 24 h; Potency: growth rescue; growth rescue (activation): at 76.6 µM (top of the series)
Outline: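 Yeast expressing FUS under galactose induction, OD 0.005 in 2% galactose medium; compounds in a dilution series, 24 h at 30C. Growth rescue by absorbance at 600 nm; CP55940 positive control, DMSO negative.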
Potency is the fitted concentration of half-maximal effect; tags give direction and shape of the fitted curve.

With `CC(C)(Cc1ccc(O)cc1)NC(=O)CC(=O)N=Nc1c(O)[nH]c2cc(Br)ccc12` as the molecule, how does the Potency read?
Its Potency is inconclusive: 28.2 µM [activator, single point].

Which “growth rescue (activation)” value does the source give for `CC1=C(C(=O)Nc2ccccc2Br)C2(CCC(C)CC2)OC1=O` (stereo not drawn) here?
Its value is inactive: -21.6%.

Which Potency does the source give for `O=C(Cc1cc(C(F)(F)F)cc(C(F)(F)F)c1)Nc1c(-c2ccccc2)[nH][nH]c1=O` here?
Its Potency is inconclusive: 17.8 µM [activator, partial curve].

Which “growth rescue (activation)” value does the source give for `CC(C)COC(=O)N1CCCC1C(=O)Nc1nccs1` (stereo not drawn) here?
The value was inactive: 23.5%.

With `CC(C)c1ccc(C2CC(=O)N3CN(C4CCCCC4)CSC3=C2C#N)cc1` (stereo not drawn) as the molecule, how does the Potency read?
The Potency was inconclusive: 39.8 µM [activator, single point].

With `CCOc1ccc2nc(NC3=NC(c4ccc(OC)cc4)CC(=O)N3)nc(C)c2c1` (stereo not drawn) as the molecule, how does the “growth rescue (activation)” value read?
Its value is inactive: 44.9%.

With `CCOc1ccccc1-c1cc(-c2n[nH]c(=S)n2CC)c2ccccc2n1` as the molecule, how does the Potency read?
The Potency was inconclusive: 44.7 µM [activator, single point].

Which Potency does the source give for `CC1(NC(=O)c2cc(-c3cccs3)nn2-c2ccccc2)CCS(=O)(=O)C1` (stereo not drawn) here?
Its Potency is inconclusive: 4.47 µM [activator, partial curve, poor fit].

Which Potency does the source give for `Cc1c(NC(=O)c2cccc(NC(=O)COc3cccc(Br)c3)c2)c(=O)n(-c2ccccc2)n1C` here?
The Potency was inconclusive: 8.91 µM [activator, full curve, poor fit].

Which “growth rescue (activation)” value does the source give for `O=C(/C=C/c1cccc([N+](=O)[O-])c1)c1ccc([N+](=O)[O-])o1` here?
The value was inactive: 22.5%.

Which Potency does the source give for `COc1cccc(NC(=S)N(Cc2ccc(Cl)cc2)Cc2ccc(C(=O)O)cc2)c1` here?
Its Potency is inconclusive: 50.1 µM [activator, single point].

Which “growth rescue (activation)” value does the source give for `O=C(c1ccccc1)N1CCCCC(S(=O)(=O)c2ccc3ccccc3c2)C1=O` (stereo not drawn) here?
Its value is inactive: 43.8%.

For `COc1ccc(-c2cc(OC(=O)c3cccc(Cl)c3)c3c(C)oc(C)c3c(=O)c2)cc1OC`, which Potency is on record?
The Potency was inconclusive: 31.6 µM [activator, partial curve, poor fit].

With `Cc1nnc(SCC(=O)Nc2ccc(S(N)(=O)=O)cc2)n(N)c1=O` as the molecule, how does the “growth rescue (activation)” value read?
The value was inactive: -16.4%.

Which “growth rescue (activation)” value does the source give for `CCC[C@H]1[C@@H](OC(=O)NCc2ccco2)CC[C@@]23CCCN2C(=O)CCC[C@@H]13` here?
Its value is inactive: 8.52%.

With `COc1ccc(S(=O)(=O)N(C)C[C@@H]2OCCCC[C@@H](C)Oc3ccc(NC(=O)NC(C)C)cc3C(=O)N([C@H](C)CO)C[C@@H]2C)cc1` as the molecule, how does the Potency read?
Its Potency is inconclusive: 31.6 µM [activator, partial curve, poor fit].

For `COc1ccc(-c2cc3nc(C)c(CCC(=O)NCc4ccc(F)cc4)c(C)n3n2)c(OC)c1`, which Potency is on record?
Its Potency is inconclusive: 17.8 µM [activator, partial curve].

With `Cc1cc(Cl)ccc1NS(=O)(=O)c1c(C(=O)N2CCCCCC2)c(C)n(C)c1C` as the molecule, how does the Potency read?
Its Potency is inconclusive: 35.5 µM [activator, single point].

With `COc1ccc(Cn2nnc3c(=O)[nH]c(C4CCN(S(=O)(=O)c5ccc(C)cc5)CC4)nc32)cc1` as the molecule, how does the Potency read?
The Potency was inconclusive: 31.6 µM [activator, single point].

For `CSc1nnc2c3cc(F)ccc3n(C)c2n1`, which “growth rescue (activation)” value is on record?
The value was inactive: -23.3%.

For `COc1ccc(NC(=O)c2ccc(S(=O)(=O)N(C)c3ccccc3)cc2)cc1S(=O)(=O)N1CCOCC1`, which Potency is on record?
Its Potency is inconclusive: 25.1 µM [activator, single point].

Which Potency does the source give for `CCOC(=O)c1cccc(NC(=O)CSc2nnc(COc3ccccc3)n2CC)c1` here?
The Potency was inconclusive: 35.5 µM [activator, partial curve, poor fit].

With `COc1ccccc1N=c1oc2cc(O)ccc2cc1C(N)=O` as the molecule, how does the “growth rescue (activation)” value read?
Its value is inactive: 13.4%.

For `Cc1ccn2c(=O)nc(SCC(=O)Nc3cccc4ccccc34)nc2c1`, which Potency is on record?
Its Potency is active: 22.4 µM.

With `COc1cc(/C=C2\CCCc3c2nc2ccccc2c3C(=O)O)cc([N+](=O)[O-])c1O` as the molecule, how does the Potency read?
Its Potency is inconclusive: 25.1 µM [activator, partial curve, poor fit].

For `COc1cc(C(=O)OCCCc2cc3ccccc3c(=O)o2)cc(OC)c1OC`, which “growth rescue (activation)” value is on record?
Its value is inactive: 6.49%.

For `COP(=O)(O)C(C)NC(=O)OCc1ccccc1` (stereo not drawn), which “growth rescue (activation)” value is on record?
The value was inactive: 8.16%.

Which “growth rescue (activation)” value does the source give for `O=C(O)c1ccc(NCc2cccc(Br)c2)cc1` here?
Its value is inactive: -18.9%.

For `COc1ccc(/C=N/NC(=O)c2nn(-c3ccc(Cl)cc3)c(=O)c3c(N)scc23)cc1`, which Potency is on record?
The Potency was inconclusive: 14.1 µM [activator, partial curve].

For `O=C(Cn1cnc2c(nnn2Cc2ccc(Cl)cc2)c1=O)NCc1ccco1`, which Potency is on record?
Its Potency is inconclusive: 10 µM [activator, partial curve, poor fit].

For `COC(=O)c1ccc(NC(=O)CCn2cnnn2)c(C)c1`, which “growth rescue (activation)” value is on record?
The value was inactive: -20.6%.

With `COc1cc(C(=O)Nc2nnc(S(=O)(=O)N3CCCCCC3)s2)cc(OC)c1OC` as the molecule, how does the Potency read?
Its Potency is inconclusive: 50.1 µM [activator, single point].

For `CS(=O)(=O)c1ccc(Cl)c(NC(=O)CN2CCN(S(=O)(=O)/C=C/c3ccccc3)CC2)c1`, which Potency is on record?
Its Potency is inconclusive: 31.6 µM [activator, single point].

With `Cc1ccc2nc(CN3CCN(S(=O)(=O)c4ccc(C(C)C)cc4)CC3)oc2c1` as the molecule, how does the Potency read?
Its Potency is inconclusive: 28.2 µM [activator, single point].

Which Potency does the source give for `CC(C)(C)c1ccc(C(=O)N2CCCC(c3nc4c(nnn4Cc4cccc(F)c4)c(=O)[nH]3)C2)cc1` (stereo not drawn) here?
The Potency was inconclusive: 35.5 µM [activator, partial curve, poor fit].

With `CCc1ccccc1NC(=O)c1cc2nc(-c3ccc(Br)cc3)cc(C(F)(F)F)n2n1` as the molecule, how does the Potency read?
The Potency was inconclusive: 50.1 µM [activator, single point].

For `Cc1noc(-c2ccccc2OCC(=O)Nc2ccccc2[N+](=O)[O-])n1`, which “growth rescue (activation)” value is on record?
The value was inactive: 34.7%.

Which Potency does the source give for `CN1CCN(C2=C(Cl)C(=O)N(c3ccc(Cl)cc3)C2=O)CC1` here?
The Potency was inconclusive: 50.1 µM [activator, single point].

With `Cc1ccc(-n2c(SCC(N)=O)nnc2-c2ccc(S(=O)(=O)N3CCCCC3)cc2)c(C)c1` as the molecule, how does the “growth rescue (activation)” value read?
Its value is inactive: 37.4%.

For `NS(=O)(=O)c1ccc(CCNC(=O)c2cc(-c3ccccn3)nc3ccc(Br)cc23)cc1`, which Potency is on record?
The Potency was inconclusive: 50.1 µM [activator, single point].

For `CC1(C(=O)Nc2ccc3c(c2)OCCO3)CCN1C(=O)C1(c2ccc(Cl)cc2)CCC1` (stereo not drawn), which Potency is on record?
The Potency was inconclusive: 31.6 µM [activator, single point].

Which “growth rescue (activation)” value does the source give for `COc1ccc(C(=O)CSc2nnc(-c3cccs3)o2)cc1OC` here?
The value was inactive: 7.36%.

With `Cc1ccc2occ(CC(=O)N(Cc3ccc(Cl)cc3)Cc3ccco3)c2c1` as the molecule, how does the Potency read?
Its Potency is inconclusive: 35.5 µM [activator, partial curve, poor fit].

Which Potency does the source give for `COc1ccc(CCNc2ccc(C(CC(N)=O)NC(=O)c3cc(OC)ccc3OC)cc2[N+](=O)[O-])cc1` (stereo not drawn) here?
The Potency was inconclusive: 31.6 µM [activator, single point].

With `CCOc1ccc(OCC)c(NC(=O)C2CCN(S(=O)(=O)c3ccc4c(c3)CC(C)N4C(C)=O)CC2)c1` (stereo not drawn) as the molecule, how does the Potency read?
Its Potency is inconclusive: 31.6 µM [activator, partial curve, poor fit].

For `Cc1ccc(-c2csc3ncnc(Sc4nnc(CN5CCCCCC5=O)o4)c23)cc1`, which Potency is on record?
The Potency was inconclusive: 28.2 µM [activator, single point].

For `CCOC(=O)c1cc(-c2sc(NC(=O)c3ccccc3)nc2C)n(Cc2ccccc2)n1`, which Potency is on record?
Its Potency is inconclusive: 28.2 µM [activator, single point].

With `CCOC(=O)c1sc(NC(=O)c2cc(S(=O)(=O)N3CCOCC3)ccc2C)nc1C` as the molecule, how does the Potency read?
Its Potency is inconclusive: 50.1 µM [activator, single point].

For `O=C(/C=C/NNC(=O)c1ccc(Br)cc1)c1ccccc1`, which Potency is on record?
Its Potency is inconclusive: 50.1 µM [activator, partial curve, poor fit].

With `O=C(Nc1ccc(N2CCOCC2)cc1)c1cc(-c2ccncc2)nc2ccccc12` as the molecule, how does the Potency read?
Its Potency is inconclusive: 25.1 µM [activator, partial curve, poor fit].

With `OCCN1CCN(c2ncnc3scc(-c4ccc(F)cc4)c23)CC1` as the molecule, how does the “growth rescue (activation)” value read?
Its value is inactive: 0.263%.

For `O=C(c1cccs1)N1C[C@@H](n2cc(C3CC3)nn2)[C@H](O)C[C@@H]1c1ccccc1`, which “growth rescue (activation)” value is on record?
The value was inactive: -23.7%.

Which Potency does the source give for `COc1ccc(S[C@]2(C(=O)N3CCN(C(C)=O)CC3)CC(=O)N(S(=O)(=O)c3ccc(F)cc3)[C@@H]2c2ccc(OC)cc2)cc1` here?
The Potency was inconclusive: 25.1 µM [activator, partial curve, poor fit].

Which “growth rescue (activation)” value does the source give for `CCCCn1c(CCCNC(=O)c2cccc(C)c2)nc2ccccc21` here?
Its value is inactive: -29.5%.

Which Potency does the source give for `CCCCC1=CC2=C(c3ccco3)C(=O)C(C)(OC(=O)c3ccc(OC)cc3)C(=O)C2=CN1CCCN(CC)CC` (stereo not drawn) here?
Its Potency is inconclusive: 28.2 µM [activator, single point].

For `Cc1ccc(C2CC(C(F)F)n3ncc(C(=O)Nc4c(C)nn(Cc5c(F)cccc5Cl)c4C)c3N2)cc1` (stereo not drawn), which Potency is on record?
Its Potency is inconclusive: 28.2 µM [activator, single point].

Which “growth rescue (activation)” value does the source give for `Cc1cccc(NC(=O)c2ccc(CN3CC(=O)N4CCCCC4C3=O)cc2)c1C` (stereo not drawn) here?
The value was inactive: 3.2%.

Which “growth rescue (activation)” value does the source give for `O=C1N(Nc2ccccc2)C(c2ccc(Br)cc2)C12CCCCC2` (stereo not drawn) here?
Its value is inactive: 12.4%.

Which Potency does the source give for `Cc1nc2sccn2c(=O)c1S(=O)(=O)N1CCN(c2cccc(C(F)(F)F)c2)CC1` here?
The Potency was inconclusive: 25.1 µM [activator, single point].

Which Potency does the source give for `Cc1c(C(=O)NCc2ccc3c(c2)OCO3)sc(=O)n1Cc1ccc(S(=O)(=O)N(C)C)cc1` here?
The Potency was inconclusive: 39.8 µM [activator, single point].

Which Potency does the source give for `Cc1cc(OCc2cc(C(=O)N(C)C(C)c3ccccn3)no2)cc(C)c1Cl` (stereo not drawn) here?
Its Potency is inconclusive: 35.5 µM [activator, single point].

With `C=Cc1ccc(Cn2c(C(=O)O)c(CNCCc3ccco3)c3ccc(C)cc32)cc1` as the molecule, how does the Potency read?
Its Potency is inconclusive: 31.6 µM [activator, single point].

Which “growth rescue (activation)” value does the source give for `CCOc1ccc(NC(=O)c2sc(-n3nc(C)c(CCC(C)C)c3C)nc2C)cc1` here?
Its value is inactive: 10.7%.
